Results from the BET-seq Pho4 binding data (Le et al. 2018).
The list shows a part of the results. These are noisy estimates, calculated here from bound and input reads.

The sequences below were run against T1, Pho4 (S. cerevisiae) (UniProt P07270) (assay: relative binding free energy (BET-seq); higher = weaker binding). Settings: reference: library average.
T1 sequence: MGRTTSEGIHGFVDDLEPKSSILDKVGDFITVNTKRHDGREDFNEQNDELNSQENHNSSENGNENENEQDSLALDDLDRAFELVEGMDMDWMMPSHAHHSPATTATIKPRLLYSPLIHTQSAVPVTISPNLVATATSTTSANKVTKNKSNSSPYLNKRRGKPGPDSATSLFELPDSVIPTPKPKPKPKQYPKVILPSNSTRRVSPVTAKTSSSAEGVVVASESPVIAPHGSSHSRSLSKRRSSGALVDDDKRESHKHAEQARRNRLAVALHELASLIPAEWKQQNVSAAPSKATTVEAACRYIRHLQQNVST

Sequence	relative binding free energy
CGTGCCACGTGGGGAT	-0.3 kcal/mol
TCGGTCACGTGCGTTG	0.13 kcal/mol
ACTGACACGTGTGTTT	0.03 kcal/mol
GTGGGCACGTGGAGAC	-0.17 kcal/mol
AACGTCACGTGATTTG	0.32 kcal/mol
TTCTACACGTGTTTCT	0.22 kcal/mol
TGAGACACGTGTGTGG	0.03 kcal/mol
TGGAGCACGTGACGAT	0.06 kcal/mol
GATAACACGTGGTGTG	0.06 kcal/mol
GGTTACACGTGGGTTT	0.01 kcal/mol
CGCGGCACGTGAGGCG	0.08 kcal/mol
TAAGGCACGTGGGATC	-0.08 kcal/mol
CAGGGCACGTGCTTTG	-0.13 kcal/mol
TGGCTCACGTGGTTCG	0.11 kcal/mol
GAAATCACGTGGCGTT	0.35 kcal/mol
TATATCACGTGTAGAT	0.4 kcal/mol
AATGGCACGTGAGGAG	0.12 kcal/mol
TCTAACACGTGGTTTG	-0.1 kcal/mol
GTTGGCACGTGTCGGG	0.05 kcal/mol
TGGAGCACGTGTGTTC	-0.16 kcal/mol
TTGAGCACGTGGATGA	-0.13 kcal/mol
TCTTTCACGTGGTTGC	0.17 kcal/mol
CGGAGCACGTGGGATG	-0.22 kcal/mol

Sequence	relative binding free energy
TTATTCACGTGTAGCT	0.21 kcal/mol
TATTTCACGTGGGTTT	0.16 kcal/mol
TTAGGCACGTGGTGCC	-0.22 kcal/mol
GGAGGCACGTGTTTGG	-0.02 kcal/mol
CGTTTCACGTGCTTGG	0.16 kcal/mol
TAGTGCACGTGTGTCG	0.05 kcal/mol
GATGACACGTGAGGTC	0.42 kcal/mol
GATGACACGTGTGTTA	0.09 kcal/mol
TAGGTCACGTGATTCG	0.2 kcal/mol
TTCGCCACGTGAGGTG	0 kcal/mol
TGGGTCACGTGGTAGA	0.18 kcal/mol
TATTACACGTGAATAT	0.43 kcal/mol
TGTGGCACGTGATTTC	-0.06 kcal/mol
GGGTACACGTGCGGGC	0.11 kcal/mol
CTTCGCACGTGGGGAT	-0.13 kcal/mol
TGAGACACGTGGATGT	0.01 kcal/mol
TAGGACACGTGGGGGC	-0.14 kcal/mol
TTGAACACGTGTATTA	0.08 kcal/mol
ATGGGCACGTGGGGGC	-0.21 kcal/mol
TGGCGCACGTGCGTCG	-0.07 kcal/mol
CTGGGCACGTGTGGGG	0.01 kcal/mol
TGTTTCACGTGTTACT	0.24 kcal/mol
TTATACACGTGGGAGC	-0.02 kcal/mol

Sequence	relative binding free energy
TGGATCACGTGAATTT	0.42 kcal/mol
ACTGGCACGTGGTTCG	-0.11 kcal/mol
ATTACCACGTGGTGTT	-0.22 kcal/mol
TTATTCACGTGTTCAG	0.16 kcal/mol
CTTTACACGTGGGGGT	-0.06 kcal/mol
GTGAACACGTGTCAGT	0.15 kcal/mol
GATATCACGTGTGTCG	0.26 kcal/mol
CGTTGCACGTGAGGCT	0.1 kcal/mol
ATCGTCACGTGTTTGT	0.05 kcal/mol
AGTGACACGTGTTTGA	-0.07 kcal/mol
TTTTCCACGTGGGGTT	-0.01 kcal/mol
GAGCTCACGTGGGGAA	0.22 kcal/mol
GTTTCCACGTGTAGGT	0.12 kcal/mol
TTCTTCACGTGTTGGC	0.37 kcal/mol
TTTGGCACGTGTACCG	-0.12 kcal/mol
ATCTGCACGTGATGGG	0.13 kcal/mol
TCAGTCACGTGGTTAT	0.09 kcal/mol
CGTGACACGTGGGTTT	-0.03 kcal/mol
TAGTTCACGTGCGGGA	0.3 kcal/mol
TGGCGCACGTGAGTGG	0.14 kcal/mol
CGTGGCACGTGAGTGC	0.02 kcal/mol
GGGTTCACGTGCTGTA	0.26 kcal/mol
GTATTCACGTGTAGGA	0.17 kcal/mol

Sequence	relative binding free energy
TCGTTCACGTGTCGGT	0.34 kcal/mol
TGGGGCACGTGGCCAG	-0.28 kcal/mol
AGTATCACGTGTTATG	0.08 kcal/mol
CTGGTCACGTGTATTT	0.03 kcal/mol
GTAAGCACGTGTTCTG	-0.05 kcal/mol
TCCGGCACGTGGTAGG	-0.13 kcal/mol
GTGGACACGTGTTTGT	0.19 kcal/mol
AGGATCACGTGTAGCG	0.15 kcal/mol
TTCATCACGTGGGTGT	-0.02 kcal/mol
TAAAGCACGTGAGAGT	0.18 kcal/mol
GTATACACGTGGTGAT	0.11 kcal/mol
ATTTTCACGTGGCATA	0.14 kcal/mol
CGTGACACGTGCGGGC	0.05 kcal/mol
AGGGGCACGTGTGTTC	-0.09 kcal/mol
GTCGTCACGTGGCTGG	-0.02 kcal/mol
GGGTGCACGTGGCACT	-0.1 kcal/mol
TATTTCACGTGTGCTG	0.21 kcal/mol
CAAGGCACGTGTGGAA	0.07 kcal/mol
TGGTCCACGTGCGTTG	-0.06 kcal/mol
GATTGCACGTGCCGGT	0.05 kcal/mol
CTGGGCACGTGTGCAT	0 kcal/mol
TATTGCACGTGTCGTC	0.04 kcal/mol
CGTGCCACGTGAGGTG	0.14 kcal/mol

Sequence	relative binding free energy
ATGAGCACGTGAAGTT	0.26 kcal/mol
ATATTCACGTGTGAGG	0.27 kcal/mol
TCGTACACGTGGTGAG	0.16 kcal/mol
TACGGCACGTGGATTG	-0.14 kcal/mol
CTATGCACGTGGGTAT	-0.09 kcal/mol
GTACTCACGTGGTGTT	0.2 kcal/mol
TATAACACGTGATGAG	0.15 kcal/mol
GCTGACACGTGTGTGT	0.06 kcal/mol
TATGACACGTGAGATT	0.41 kcal/mol
GTTATCACGTGGAGTT	0.21 kcal/mol
TGTATCACGTGGTAGA	0 kcal/mol
AGCGGCACGTGGGTGC	-0.26 kcal/mol
GGAAACACGTGGAGTG	-0.05 kcal/mol
TGATTCACGTGTTTGT	0.28 kcal/mol
GCTAGCACGTGGGGCA	-0.1 kcal/mol
AGGGCCACGTGTTAGA	-0.05 kcal/mol
GTGCGCACGTGAGATG	0.11 kcal/mol
TAGTGCACGTGAGTAT	0.15 kcal/mol
GTTTTCACGTGAATTG	0.41 kcal/mol
GGATGCACGTGTCGGA	0.04 kcal/mol
GCGCGCACGTGGGGGT	-0.29 kcal/mol
GGTGACACGTGCTAGT	-0.09 kcal/mol
AGGTGCACGTGGAGAT	-0.1 kcal/mol
